The values below come from the supplement of paper PMC10369915.

The other results are listed elsewhere or left out. Cut-off read from the data, not from the text of the source: active = 3.2 or more and inactive = the rest. The signal is at background level for most entries.
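Note: displayed peptides selected on beads carrying the immobilized SH2 domain, with library peptides lacking any tyrosine serving as negative controls.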

For the first experiment, the target named is SHP2 C-SH2 domain E139D. Briefly: enrichment score (SH2-bound / input frequency) (ratio); bacterial display of known human phosphotyrosine sites (pTyr-Var adds point mutants) read by sequencing; higher = stronger binding; tyrosines were phosphorylated by kinases first. Conditions: peptide library: pTyr-Var.
IMAFFYMCDRA [CASD1_Y382_YF]: the enrichment score is inactive: 2.3.
With VTQEQYELYCE [CBL_Y368], the enrichment score was inactive: 0.822.
In the case of TSQSQYFSFRE [CCDC170_Y323], the enrichment score is inactive: 0.67.
With LDLPGYCLLRE [CCDC116_Y291_P293L], the enrichment score is inactive: 0.769.
Still for that read-out and setting: the figure for KQNSLYSFSDH [CCDC82_Y331] is inactive: 0.715.
The same measure, in the same setting: the figure for ESDGAYIQRMQ [CCDC137_Y125_H127Q] is inactive: 0.594; for VTHKEYFIFLE [CAMKV_Y95_R92H] it is active: 3.59; for KKKKQYKDKYL [CASK_Y708] it is inactive: 0.375.
The same measure, in the same setting: the figure for LVRAFYCERRR [CARD11_Y970] is inactive: 0.212; for SVGGLYRDMGA [CBX8_Y321_G317V] it is inactive: 0.665.
LDLPGYCPLRE [CCDC116_Y291]: the enrichment score was inactive: 0.773.
As for GRLFAYPDTHR [CAT_Y358], the enrichment score was inactive: 1.1.
The same measure, in the same setting: the result for EAVSIYQFFGQ [CBLC_Y402_H405Y_YF] reads inactive: 1.26; that for LWKWRYEELKE [CCDC102B_Y299_K298R], inactive: 1.2; that for QGQHWYSSSDK [CASP10_Y9], inactive: 0.799.
Take SEDSEYFRAFE [CASQ2_Y178_K180R_YF]: the enrichment score was inactive: 0.771.
The same measure, in the same setting: the result for KKRSVYIKVLF [CC2D2A_Y683_L684I] reads inactive: 0.609; that for ELTTCYRKKCC [CCBE1_Y70], inactive: 0.749.
Take QGQHWYSSSDT [CASP10_Y9_K14T]: the enrichment score was inactive: 0.772.

The target in another experiment is SHP2 C-SH2 domain wild-type. The experiment is described as above. Conditions: peptide library: pTyr-Var.
Consider IMAFFYMCDRA [CASD1_Y382_YF], for which the enrichment score was inactive: 2.69.
The same measure, in the same setting: the figure for VTQEQYELYCE [CBL_Y368] is inactive: 0.942; for TSQSQYFSFRE [CCDC170_Y323] it is inactive: 0.525.
Still for that read-out and setting: the figure for LDLPGYCLLRE [CCDC116_Y291_P293L] is inactive: 1.81.
On the same count and under the same terms, the result for KQNSLYSFSDH [CCDC82_Y331] reads inactive: 0.705.
Take ESDGAYIQRMQ [CCDC137_Y125_H127Q]: the enrichment score is inactive: 0.576.
Still for that read-out and setting: the figure for VTHKEYFIFLE [CAMKV_Y95_R92H] is active: 3.23.
Turning to KKKKQYKDKYL [CASK_Y708], the enrichment score is inactive: 0.396.
Take LVRAFYCERRR [CARD11_Y970]: the enrichment score is inactive: 0.15.
SVGGLYRDMGA [CBX8_Y321_G317V]: the enrichment score is inactive: 0.756.
The same measure, in the same setting: the result for LDLPGYCPLRE [CCDC116_Y291] reads inactive: 0.861; that for GRLFAYPDTHR [CAT_Y358], inactive: 1.19; that for EAVSIYQFFGQ [CBLC_Y402_H405Y_YF], inactive: 1.41.
The same measure, in the same setting: the result for LWKWRYEELKE [CCDC102B_Y299_K298R] reads inactive: 1.
Regarding QGQHWYSSSDK [CASP10_Y9], the enrichment score is inactive: 0.8.
On the same count and under the same terms, the result for SEDSEYFRAFE [CASQ2_Y178_K180R_YF] reads inactive: 0.733.
On the same count and under the same terms, the figure for KKRSVYIKVLF [CC2D2A_Y683_L684I] is inactive: 0.794; for ELTTCYRKKCC [CCBE1_Y70] it is inactive: 0.565.
The same measure, in the same setting: the result for QGQHWYSSSDT [CASP10_Y9_K14T] reads inactive: 0.949.

The target in a further experiment is SHP2 N-SH2 domain L43F. The description is as above. Conditions: peptide library: pTyr-Var.
Turning to IMAFFYMCDRA [CASD1_Y382_YF], the enrichment score is inactive: 2.2.
The same measure, in the same setting: the figure for VTQEQYELYCE [CBL_Y368] is inactive: 0.682.
TSQSQYFSFRE [CCDC170_Y323]: the enrichment score is inactive: 0.73.
The same measure, in the same setting: the figure for LDLPGYCLLRE [CCDC116_Y291_P293L] is inactive: 0.754; for KQNSLYSFSDH [CCDC82_Y331] it is inactive: 0.686.
The same measure, in the same setting: the result for ESDGAYIQRMQ [CCDC137_Y125_H127Q] reads inactive: 0.655; that for VTHKEYFIFLE [CAMKV_Y95_R92H], active: 3.45.
Same read-out and setting: the figure for KKKKQYKDKYL [CASK_Y708] is inactive: 0.395; for LVRAFYCERRR [CARD11_Y970] it is inactive: 0.209; for SVGGLYRDMGA [CBX8_Y321_G317V] it is inactive: 0.624.
For LDLPGYCPLRE [CCDC116_Y291], the enrichment score was inactive: 0.764.
Same read-out and setting: the result for GRLFAYPDTHR [CAT_Y358] reads inactive: 0.976.
Take EAVSIYQFFGQ [CBLC_Y402_H405Y_YF]: the enrichment score was inactive: 1.29.
Same read-out and setting: the result for LWKWRYEELKE [CCDC102B_Y299_K298R] reads inactive: 0.867; that for QGQHWYSSSDK [CASP10_Y9], inactive: 0.647.
Still for that read-out and setting: the figure for SEDSEYFRAFE [CASQ2_Y178_K180R_YF] is inactive: 0.712.
On the same count and under the same terms, the figure for KKRSVYIKVLF [CC2D2A_Y683_L684I] is inactive: 0.784; for ELTTCYRKKCC [CCBE1_Y70] it is inactive: 0.478.
In the case of QGQHWYSSSDT [CASP10_Y9_K14T], the enrichment score is inactive: 0.948.

For another experiment, the target named is SHP2 N-SH2 domain T42A. The experiment is described as above. Conditions: peptide library: pTyr-Var.
With IMAFFYMCDRA [CASD1_Y382_YF], the enrichment score is inactive: 2.05.
The same measure, in the same setting: the figure for VTQEQYELYCE [CBL_Y368] is inactive: 0.75; for TSQSQYFSFRE [CCDC170_Y323] it is inactive: 0.649; for LDLPGYCLLRE [CCDC116_Y291_P293L] it is inactive: 0.887.
The same measure, in the same setting: the result for KQNSLYSFSDH [CCDC82_Y331] reads inactive: 0.67; that for ESDGAYIQRMQ [CCDC137_Y125_H127Q], inactive: 0.439.
Still for that read-out and setting: the result for VTHKEYFIFLE [CAMKV_Y95_R92H] reads inactive: 2.71.
KKKKQYKDKYL [CASK_Y708]: the enrichment score was inactive: 0.277.
The same measure, in the same setting: the figure for LVRAFYCERRR [CARD11_Y970] is inactive: 0.124; for SVGGLYRDMGA [CBX8_Y321_G317V] it is inactive: 0.608; for LDLPGYCPLRE [CCDC116_Y291] it is inactive: 0.782.
For GRLFAYPDTHR [CAT_Y358], the enrichment score was inactive: 1.1.
Still for that read-out and setting: the result for EAVSIYQFFGQ [CBLC_Y402_H405Y_YF] reads inactive: 1.19; that for LWKWRYEELKE [CCDC102B_Y299_K298R], inactive: 0.779.
Take QGQHWYSSSDK [CASP10_Y9]: the enrichment score was inactive: 0.687.
Same read-out and setting: the result for SEDSEYFRAFE [CASQ2_Y178_K180R_YF] reads inactive: 0.505.
Still for that read-out and setting: the figure for KKRSVYIKVLF [CC2D2A_Y683_L684I] is inactive: 1.16.
In the case of ELTTCYRKKCC [CCBE1_Y70], the enrichment score is inactive: 0.442.
For QGQHWYSSSDT [CASP10_Y9_K14T], the enrichment score is inactive: 0.79.

For the next experiment, the target named is SHP2 N-SH2 domain T52S. The description is as above. Conditions: peptide library: pTyr-Var.
On to IMAFFYMCDRA [CASD1_Y382_YF], for which the enrichment score is inactive: 2.03.
On the same count and under the same terms, the figure for VTQEQYELYCE [CBL_Y368] is inactive: 0.869.
Still for that read-out and setting: the figure for TSQSQYFSFRE [CCDC170_Y323] is inactive: 0.596.
On the same count and under the same terms, the figure for LDLPGYCLLRE [CCDC116_Y291_P293L] is inactive: 0.813; for KQNSLYSFSDH [CCDC82_Y331] it is inactive: 0.632.
In the case of ESDGAYIQRMQ [CCDC137_Y125_H127Q], the enrichment score was inactive: 0.712.
Still for that read-out and setting: the figure for VTHKEYFIFLE [CAMKV_Y95_R92H] is inactive: 2.87; for KKKKQYKDKYL [CASK_Y708] it is inactive: 0.411; for LVRAFYCERRR [CARD11_Y970] it is inactive: 0.137.
The same measure, in the same setting: the result for SVGGLYRDMGA [CBX8_Y321_G317V] reads inactive: 0.676.
On the same count and under the same terms, the result for LDLPGYCPLRE [CCDC116_Y291] reads inactive: 1.1; that for GRLFAYPDTHR [CAT_Y358], inactive: 0.996.
As for EAVSIYQFFGQ [CBLC_Y402_H405Y_YF], the enrichment score was inactive: 1.51.
Still for that read-out and setting: the figure for LWKWRYEELKE [CCDC102B_Y299_K298R] is inactive: 1.17.
On to QGQHWYSSSDK [CASP10_Y9], for which the enrichment score was inactive: 0.637.
In the case of SEDSEYFRAFE [CASQ2_Y178_K180R_YF], the enrichment score was inactive: 0.642.
As for KKRSVYIKVLF [CC2D2A_Y683_L684I], the enrichment score was inactive: 0.961.
For the molecule ELTTCYRKKCC [CCBE1_Y70], the enrichment score was inactive: 0.485.
As to QGQHWYSSSDT [CASP10_Y9_K14T], the enrichment score was inactive: 0.785.

A further experiment has as its target SHP2 N-SH2 domain wild-type. Described as above. Conditions: peptide library: pTyr-Var.
As for IMAFFYMCDRA [CASD1_Y382_YF], the enrichment score was inactive: 2.52.
Take VTQEQYELYCE [CBL_Y368]: the enrichment score is inactive: 0.836.
Same read-out and setting: the result for TSQSQYFSFRE [CCDC170_Y323] reads inactive: 0.655; that for LDLPGYCLLRE [CCDC116_Y291_P293L], inactive: 1.16; that for KQNSLYSFSDH [CCDC82_Y331], inactive: 0.895.
For the molecule ESDGAYIQRMQ [CCDC137_Y125_H127Q], the enrichment score is inactive: 0.811.
Still for that read-out and setting: the result for VTHKEYFIFLE [CAMKV_Y95_R92H] reads inactive: 3.19; that for KKKKQYKDKYL [CASK_Y708], inactive: 0.301; that for LVRAFYCERRR [CARD11_Y970], inactive: 0.22.
Same read-out and setting: the result for SVGGLYRDMGA [CBX8_Y321_G317V] reads inactive: 0.799; that for LDLPGYCPLRE [CCDC116_Y291], inactive: 1.01.
With GRLFAYPDTHR [CAT_Y358], the enrichment score is inactive: 1.14.
For the molecule EAVSIYQFFGQ [CBLC_Y402_H405Y_YF], the enrichment score was inactive: 1.49.
Same read-out and setting: the figure for LWKWRYEELKE [CCDC102B_Y299_K298R] is inactive: 1.04.
Turning to QGQHWYSSSDK [CASP10_Y9], the enrichment score is inactive: 0.663.
On the same count and under the same terms, the figure for SEDSEYFRAFE [CASQ2_Y178_K180R_YF] is inactive: 0.702; for KKRSVYIKVLF [CC2D2A_Y683_L684I] it is inactive: 0.87.
The same measure, in the same setting: the figure for ELTTCYRKKCC [CCBE1_Y70] is inactive: 0.77; for QGQHWYSSSDT [CASP10_Y9_K14T] it is inactive: 0.815.
